Test results taken from the BET-seq Pho4 binding data (Le et al. 2018).
The list shows a part of the results. Values were computed here from the reads of four pooled replicates and scatter widely.

Molecular target: T1, Pho4 (S. cerevisiae) (UniProt P07270)
T1 sequence: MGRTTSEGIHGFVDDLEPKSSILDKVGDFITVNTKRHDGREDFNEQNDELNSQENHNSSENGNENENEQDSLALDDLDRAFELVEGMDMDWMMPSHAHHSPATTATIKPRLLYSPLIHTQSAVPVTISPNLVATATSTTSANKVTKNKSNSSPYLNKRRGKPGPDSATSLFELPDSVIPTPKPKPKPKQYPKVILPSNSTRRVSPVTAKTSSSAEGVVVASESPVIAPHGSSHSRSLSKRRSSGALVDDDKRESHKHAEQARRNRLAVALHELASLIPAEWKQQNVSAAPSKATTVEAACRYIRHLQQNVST
Experiment: relative binding free energy (BET-seq); higher = weaker binding
Conditions: reference: library average

TGTTTCACGTGAAGAG was tested. Which “relative binding free energy” value did it give?
Its value is 0.24 kcal/mol.

Which “relative binding free energy” value does the source give for GTAGACACGTGATAGT here?
The value was 0.17 kcal/mol.

Which “relative binding free energy” value does the source give for AAGAGCACGTGAGGTT here?
Its value is 0.08 kcal/mol.

For ATTGGCACGTGATATA, which “relative binding free energy” value is on record?
Its value is -0.18 kcal/mol.

Which “relative binding free energy” value does the source give for TTACTCACGTGTGTAG here?
Its value is 0.08 kcal/mol.

TTTGACACGTGGAGTC was tested. Which “relative binding free energy” value did it give?
The value was 0.14 kcal/mol.

GTCGACACGTGAGTGT was tested. Which “relative binding free energy” value did it give?
Its value is 0.45 kcal/mol.

Which “relative binding free energy” value does the source give for GGAAGCACGTGTTGCT here?
The value was -0.08 kcal/mol.

For CGTTGCACGTGTATCG, which “relative binding free energy” value is on record?
The value was 0.13 kcal/mol.

With GTTTTCACGTGGGATC as the sequence, how does the “relative binding free energy” value read?
Its value is 0.38 kcal/mol.

ATCGTCACGTGGTATA was tested. Which “relative binding free energy” value did it give?
Its value is 0.04 kcal/mol.

How did the “relative binding free energy” value turn out when TACTTCACGTGATTTT was run?
The value was 0.36 kcal/mol.

For TTAATCACGTGATTGG, which “relative binding free energy” value is on record?
Its value is 0.35 kcal/mol.

How did the “relative binding free energy” value turn out when TCTATCACGTGGGCTT was run?
The value was 0.18 kcal/mol.

With AGAGGCACGTGATGGT as the sequence, how does the “relative binding free energy” value read?
Its value is -0.02 kcal/mol.

With ATAGTCACGTGGAAGG as the sequence, how does the “relative binding free energy” value read?
Its value is 0.08 kcal/mol.

How did the “relative binding free energy” value turn out when ACTGACACGTGTTGTT was run?
The value was -0.03 kcal/mol.

For ATCGGCACGTGGTTAT, which “relative binding free energy” value is on record?
Its value is -0.14 kcal/mol.

TAAATCACGTGAGTAG was tested. Which “relative binding free energy” value did it give?
Its value is 0.28 kcal/mol.

With TGGTCCACGTGAATGG as the sequence, how does the “relative binding free energy” value read?
The value was 0.29 kcal/mol.

How did the “relative binding free energy” value turn out when GGTTGCACGTGGGTTT was run?
Its value is -0.07 kcal/mol.

For TTATGCACGTGTGAAG, which “relative binding free energy” value is on record?
The value was 0.08 kcal/mol.

Which “relative binding free energy” value does the source give for AGTATCACGTGGTACG here?
Its value is 0.17 kcal/mol.

With TAGTCCACGTGTAGGT as the sequence, how does the “relative binding free energy” value read?
Its value is 0.03 kcal/mol.

For GATGGCACGTGGGTGT, which “relative binding free energy” value is on record?
The value was -0.13 kcal/mol.

TGTTCCACGTGGTTCG was tested. Which “relative binding free energy” value did it give?
Its value is -0.04 kcal/mol.

For GTCATCACGTGTTTGG, which “relative binding free energy” value is on record?
Its value is 0.15 kcal/mol.

For GTATTCACGTGGGTAG, which “relative binding free energy” value is on record?
The value was 0.25 kcal/mol.

With ATAGACACGTGGGCGG as the sequence, how does the “relative binding free energy” value read?
The value was -0.16 kcal/mol.

For AGGTTCACGTGAGGTG, which “relative binding free energy” value is on record?
Its value is 0.47 kcal/mol.

TAGGTCACGTGCAATG was tested. Which “relative binding free energy” value did it give?
The value was 0.12 kcal/mol.

For TCAATCACGTGTGTTT, which “relative binding free energy” value is on record?
The value was 0.28 kcal/mol.

For TTGAACACGTGTTATG, which “relative binding free energy” value is on record?
The value was 0.13 kcal/mol.

TTTGACACGTGGTGCA was tested. Which “relative binding free energy” value did it give?
Its value is -0.13 kcal/mol.

For ATATCCACGTGAGGAG, which “relative binding free energy” value is on record?
Its value is 0.31 kcal/mol.

TGGGCCACGTGTCGTT was tested. Which “relative binding free energy” value did it give?
Its value is -0.09 kcal/mol.

Which “relative binding free energy” value does the source give for GGGTACACGTGTGAAT here?
The value was 0.14 kcal/mol.

With TGTTGCACGTGCTTGC as the sequence, how does the “relative binding free energy” value read?
The value was -0.14 kcal/mol.

TTTGTCACGTGGTCGT was tested. Which “relative binding free energy” value did it give?
Its value is 0 kcal/mol.

With TTCAGCACGTGATGGT as the sequence, how does the “relative binding free energy” value read?
The value was 0.05 kcal/mol.

Which “relative binding free energy” value does the source give for TCGGCCACGTGTGGTA here?
The value was -0.06 kcal/mol.

CTGAACACGTGGCGGG was tested. Which “relative binding free energy” value did it give?
The value was 0.03 kcal/mol.

Which “relative binding free energy” value does the source give for TTTGTCACGTGGTGTG here?
Its value is 0.08 kcal/mol.

For AAGTTCACGTGGGCAT, which “relative binding free energy” value is on record?
Its value is 0.09 kcal/mol.

TTCGTCACGTGTATGT was tested. Which “relative binding free energy” value did it give?
The value was 0.11 kcal/mol.

For ATTCGCACGTGTGGTG, which “relative binding free energy” value is on record?
The value was -0.01 kcal/mol.

With GCGGGCACGTGGGGCT as the sequence, how does the “relative binding free energy” value read?
Its value is -0.3 kcal/mol.

Which “relative binding free energy” value does the source give for TGCAACACGTGGTGGA here?
Its value is 0.01 kcal/mol.

With TGGGACACGTGTAAGC as the sequence, how does the “relative binding free energy” value read?
The value was 0.3 kcal/mol.

TATGACACGTGAGCTG was tested. Which “relative binding free energy” value did it give?
Its value is 0.29 kcal/mol.

TCTTTCACGTGGTGGC was tested. Which “relative binding free energy” value did it give?
The value was 0.28 kcal/mol.

TGTGTCACGTGATGTA was tested. Which “relative binding free energy” value did it give?
Its value is 0.28 kcal/mol.

For TGGCACACGTGTGAGG, which “relative binding free energy” value is on record?
Its value is 0.16 kcal/mol.

TGTATCACGTGATTTT was tested. Which “relative binding free energy” value did it give?
The value was 0.28 kcal/mol.

For ATATGCACGTGATTTC, which “relative binding free energy” value is on record?
The value was 0.1 kcal/mol.

Which “relative binding free energy” value does the source give for TAGAACACGTGGGTTG here?
The value was -0.18 kcal/mol.

With TGGGGCACGTGACTTT as the sequence, how does the “relative binding free energy” value read?
Its value is -0.05 kcal/mol.

Which “relative binding free energy” value does the source give for TTACACACGTGCGGGT here?
Its value is -0.02 kcal/mol.

For TGGCTCACGTGCGATT, which “relative binding free energy” value is on record?
Its value is 0.19 kcal/mol.

With GGGTTCACGTGCAGTG as the sequence, how does the “relative binding free energy” value read?
Its value is 0.38 kcal/mol.

Which “relative binding free energy” value does the source give for GGTATCACGTGTTACA here?
The value was 0.19 kcal/mol.

AGCGACACGTGGGTTG was tested. Which “relative binding free energy” value did it give?
The value was -0.03 kcal/mol.

TGGATCACGTGTCGTC was tested. Which “relative binding free energy” value did it give?
Its value is 0.27 kcal/mol.

How did the “relative binding free energy” value turn out when AAACGCACGTGGTTTT was run?
The value was -0.06 kcal/mol.

With TTGGGCACGTGTTGTA as the sequence, how does the “relative binding free energy” value read?
The value was -0.09 kcal/mol.

For AAGTTCACGTGGTAGT, which “relative binding free energy” value is on record?
The value was 0.31 kcal/mol.

With TCGGGCACGTGAGCTT as the sequence, how does the “relative binding free energy” value read?
The value was 0.3 kcal/mol.

How did the “relative binding free energy” value turn out when TGGTTCACGTGTATCT was run?
Its value is 0.18 kcal/mol.

ATTAGCACGTGAATAG was tested. Which “relative binding free energy” value did it give?
The value was 0.15 kcal/mol.

With TTTGGCACGTGGCTTG as the sequence, how does the “relative binding free energy” value read?
The value was -0.1 kcal/mol.

With GTAAGCACGTGGGGGA as the sequence, how does the “relative binding free energy” value read?
Its value is -0.15 kcal/mol.

Which “relative binding free energy” value does the source give for GCGTGCACGTGGTGGA here?
The value was -0.02 kcal/mol.

How did the “relative binding free energy” value turn out when ATTTACACGTGGGTTG was run?
The value was 0.02 kcal/mol.

How did the “relative binding free energy” value turn out when ATTGGCACGTGGATTC was run?
The value was 0.13 kcal/mol.

Which “relative binding free energy” value does the source give for TTTTGCACGTGTGTTT here?
Its value is 0.11 kcal/mol.

Which “relative binding free energy” value does the source give for GCTTTCACGTGGGAAT here?
The value was 0.18 kcal/mol.

GGATTCACGTGGTGCG was tested. Which “relative binding free energy” value did it give?
Its value is 0.37 kcal/mol.

How did the “relative binding free energy” value turn out when CGTTGCACGTGGCGTT was run?
The value was -0.04 kcal/mol.

How did the “relative binding free energy” value turn out when GGGATCACGTGTCTTT was run?
Its value is 0.27 kcal/mol.

With GTGTGCACGTGGGCAG as the sequence, how does the “relative binding free energy” value read?
The value was -0.11 kcal/mol.

For GACAGCACGTGAGGGT, which “relative binding free energy” value is on record?
The value was 0.11 kcal/mol.

GGGTTCACGTGTCTTC was tested. Which “relative binding free energy” value did it give?
Its value is 0.46 kcal/mol.

Which “relative binding free energy” value does the source give for CTTCACACGTGTGTAG here?
Its value is 0.15 kcal/mol.

How did the “relative binding free energy” value turn out when TTAAGCACGTGTTATT was run?
Its value is 0.03 kcal/mol.

GTTTCCACGTGTTAGA was tested. Which “relative binding free energy” value did it give?
Its value is 0.33 kcal/mol.

For GGTCGCACGTGGTATG, which “relative binding free energy” value is on record?
The value was -0.18 kcal/mol.

Which “relative binding free energy” value does the source give for TTGTGCACGTGATGCT here?
The value was 0.09 kcal/mol.

Which “relative binding free energy” value does the source give for AGAGTCACGTGAAAAG here?
Its value is 0.38 kcal/mol.

How did the “relative binding free energy” value turn out when GGTTGCACGTGCGGCA was run?
The value was -0.08 kcal/mol.

Which “relative binding free energy” value does the source give for TGGTTCACGTGTAGGC here?
The value was 0.32 kcal/mol.

ATGGACACGTGGGCAT was tested. Which “relative binding free energy” value did it give?
The value was -0.14 kcal/mol.

With TTAGACACGTGCTAGT as the sequence, how does the “relative binding free energy” value read?
The value was 0.1 kcal/mol.

TGTGGCACGTGGTAAA was tested. Which “relative binding free energy” value did it give?
Its value is -0.15 kcal/mol.

With AGTATCACGTGTCGGA as the sequence, how does the “relative binding free energy” value read?
The value was 0.21 kcal/mol.

TGAGTCACGTGTTGTT was tested. Which “relative binding free energy” value did it give?
The value was 0.16 kcal/mol.

TCGTTCACGTGTGAGT was tested. Which “relative binding free energy” value did it give?
The value was 0.22 kcal/mol.

For GATATCACGTGGAAGG, which “relative binding free energy” value is on record?
Its value is 0.16 kcal/mol.

With TCTATCACGTGGTGAT as the sequence, how does the “relative binding free energy” value read?
The value was 0.08 kcal/mol.

With TATTACACGTGTGGGC as the sequence, how does the “relative binding free energy” value read?
The value was 0.16 kcal/mol.

Which “relative binding free energy” value does the source give for AGGTCCACGTGTTGGT here?
Its value is 0.01 kcal/mol.

For GAAGGCACGTGCGTGT, which “relative binding free energy” value is on record?
Its value is -0.08 kcal/mol.

With AAGGTCACGTGGATAG as the sequence, how does the “relative binding free energy” value read?
The value was 0.08 kcal/mol.

With GTGGTCACGTGTGGGA as the sequence, how does the “relative binding free energy” value read?
Its value is 0.21 kcal/mol.

For TTGGGCACGTGGCATG, which “relative binding free energy” value is on record?
Its value is -0.18 kcal/mol.

How did the “relative binding free energy” value turn out when TTTTGCACGTGTTAGT was run?
The value was 0.01 kcal/mol.

TGGTGCACGTGTTCGG was tested. Which “relative binding free energy” value did it give?
The value was -0.06 kcal/mol.

For AGGTGCACGTGGTAAA, which “relative binding free energy” value is on record?
Its value is 0.05 kcal/mol.

How did the “relative binding free energy” value turn out when TCGTTCACGTGTGTGT was run?
Its value is 0.3 kcal/mol.

Which “relative binding free energy” value does the source give for ATGGTCACGTGGGTCC here?
Its value is 0 kcal/mol.

For TGGCGCACGTGAGATG, which “relative binding free energy” value is on record?
Its value is 0.25 kcal/mol.

Which “relative binding free energy” value does the source give for GGGTTCACGTGGGGGT here?
The value was 0.23 kcal/mol.

Which “relative binding free energy” value does the source give for ATTGGCACGTGTTAAG here?
The value was -0.1 kcal/mol.

TGTGCCACGTGAAGTT was tested. Which “relative binding free energy” value did it give?
The value was 0.13 kcal/mol.

With GGCATCACGTGTGATG as the sequence, how does the “relative binding free energy” value read?
Its value is 0.31 kcal/mol.

For GGGTGCACGTGGTTAG, which “relative binding free energy” value is on record?
Its value is -0.06 kcal/mol.
